The other results are listed elsewhere or left out.

The test system of this test is PfHDP1 homeodomain (GST-tagged). The test is described as follows: gcPBM binding intensity (ln(normalized median fluorescence intensity)); higher = stronger DNA binding. Summed up:
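Binding of GST-tagged P. falciparum DNA-binding domains, expressed in E. coli and used at about 25 μg on average, was carried out for 1 h in 1× PBS containing 1% milk, 0.2 mg/ml BSA, 0.5% salmon testes DNA and 0.03% Triton X-100. The target was an Agilent 4 × 180k array of primer-extended double-stranded 36-bp intergenic genomic probes plus negative controls, read with Alexa488 anti-GST antibody at 488 nm. Binding intensity is the highest Masliner-normalised natural-log median intensity across replicate spots of either probe orientation.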
Take “AATAATAAATTATGGTGTACGCATTTGTATATATAC [XGTACX_site5417]”: the “gcPBM binding intensity (ln)” value was found to be 6.54.

As for “TTTTTTTCTTAAAGATGTACTTTTTTAAAATAATCT [XGTACX_site3663]”, the “gcPBM binding intensity (ln)” value amounted to 6.04. Next, “GCCCAACCAAAATATACACACAGTTGAATGAATAAA [CACACA_site2597]”: 6.6; “TATATTTGGAAATATTCTCAATTGGTACAAATAAAA [CACACA_negctrl_site1202]”: 6.55. The same measure for “TAAAAGAAATATACATGTACATAAATATATATATAT [XGTACX_site1276]”: 8.9; for “ACATTTTATACGATAAAATGTATAAGATTATGAAGA [TGCATGCA_negctrl_site476]”: 6.58; for “AAAATAATAACATTGTGTACATAAAAAGAAAACCTT [XGTACX_site840]”: 6.65. In the case of “TTATGTCATAAATGCACACATATATATATACATATA [CACACA_site1588]”, the “gcPBM binding intensity (ln)” value was determined as 10.5.

“AGGCACGTGTTATATACACACATAATCAAATAAACT [CACACA_site7852]”: the “gcPBM binding intensity (ln)” value turned out to be 6.91.

Consider “TATGAATGGTTAAGTACACACATATTAATATATGTA [CACACA_site3490]”, for which the “gcPBM binding intensity (ln)” value worked out at 6.36. For the sequence “AAATGAAAATAAAGCAACAGAAATATAATGTATTAT [GTGCAC_negctrl_site508]”, the “gcPBM binding intensity (ln)” value was determined as 6.47. Take “TTAACCTTTTGATATTGTACCCATAATCTAATACAA [XGTACX_site769]”: the “gcPBM binding intensity (ln)” value was determined as 6.47. In the case of “TTTTTTAAAAAAGTTTTCTGTATTTATATATATATA [CACACA_negctrl_site31]”, the “gcPBM binding intensity (ln)” value turned out to be 8.56. The same measure for “TCATATGTATAAATTAGTACATATTTAATGGATATA [XGTACX_site3298]”: 6.26; for “CTATCTACATAAACGTGTACCCACAAATAAATAAAT [XGTACX_site5210]”: 6.52; for “TGGTACCTTACTTTTACACACTTTTTTTTTTTTTTT [CACACA_site1557]”: 6.37. With “TTTTGAGTAGCCTATTGTACGAACTTTTTAAATACA [XGTACX_site1224]”, the “gcPBM binding intensity (ln)” value was 5.78.

For the sequence “AATATATACGCATGCGCACACACAAGTGGGAAATTT [CACACA_site1786]”, the “gcPBM binding intensity (ln)” value was found to be 7.29. Turning to “CCATTTTAAATATGCACACAGATGCACTAACACATT [CACACA_site5099]”, the “gcPBM binding intensity (ln)” value came out at 10.6.

As to “ATAAATTTATCCAAGTGTACAAAGCTAACATTTTTT [XGTACX_site4399]”, the “gcPBM binding intensity (ln)” value turned out to be 6.4. Next, “CATCCTATTACTTGGTGTACTATTTTATATTGAATA [XGTACX_site1050]”: 6.6; “AAAAATGGAATTATCTGTACATATATAGTTTTTAAA [XGTACX_site5580]”: 6.12. Take “ATAAACAAGACGCAACAAAGTAGAAATTAAAAATAA [CACACA_negctrl_site345]”: the “gcPBM binding intensity (ln)” value was 6.39. With “GTTTATAAAATAAGAAGTACTTTATGAGAACCATAT [XGTACX_site5789]”, the “gcPBM binding intensity (ln)” value is 6.18. As for “TTTTTTTACAACATTACACACAAATATTCTGTGTTA [CACACA_site5957]”, the “gcPBM binding intensity (ln)” value amounted to 7.53. The same measure for “AACATTTTAAAACAGACACACACCAAAAAAAAAAAA [CACACA_site257]”: 6.26; for “AACAAAAATAATAATCAAATAAATAAATGAAAACAT [CACACA_negctrl_site456]”: 6.49; for “AATCGTGTTCTGAATACACACTAATACAAATTTGTA [CACACA_site6058]”: 6.82. In the case of “AGAAAATTAAAAAGAACACACAAATATATATATAAT [CACACA_site5896]”, the “gcPBM binding intensity (ln)” value was determined as 6.8. Next, “ATATTACAACATTTTATACACACGTGATTATTAATT [CACACA_site2877]”: 7.1; “CACCCATAAATATACACACGCACAACACAAAATAAA [CACACA_site2903]”: 7.24; “ATATATATATATACATGTACAAATGTATAACAAATG [XGTACX_site145]”: 8.84. Next, “TTTTGTTTAAAAAAAAAAAACAAAAAAAAGCAATTA [CACACA_negctrl_site314]”: 5.94; “TAATTTGTTATGTATTGTACAAATAATATATGATAT [XGTACX_site1985]”: 6.74; “ATTAAAAAAATATACGCACACAAAATGTAATAACAA [CACACA_site2439]”: 7.15. Take “TTACATAATTTATGTACACACGCAAATACTTATAAT [CACACA_site4331]”: the “gcPBM binding intensity (ln)” value came to 6.78. ATTATTACTTTTTGAGTGCACATACACACAGACATA: the “gcPBM binding intensity (ln)” value stood at 10.

Turning to “ATTTTTCATTCTGGACATGTTACCATTATATATATG [CACACA_negctrl_site61]”, the “gcPBM binding intensity (ln)” value turned out to be 7.16. With “ATAACTATAATAATCATACACACCAAAGAGAATATT [CACACA_site6970]”, the “gcPBM binding intensity (ln)” value was found to be 6.89. Next, ATGAAACACTCCATAGTGCAAAATATATATTATATT: 9.33; “CTATTTTTCCTGAAATGTACAAGAATTTTATTTGAT [XGTACX_site8867]”: 6.15; “TGATAATATTATATATGTACATATATGTATATTTTT [XGTACX_site7193]”: 6.38. Next, “AATTCAATTGAGCAAAATTCAAATAAATTAAAAAGA [XGTACX_negctrl_site71]”: 7.15; “CAAAAATAATTTAGGTGTACAAATTTGACAAAAAAA [XGTACX_site188]”: 7.11.

(Values after the supplement of paper PMC11417369.)
